Results from EP4717714A1 (Shanghai Junshi Biosciences Co., Ltd., dated 2026).

Key:
[1] = molecular target: T1, Recombinant human VEGFA (Sino Biological, catalog number 11066-HNAB) (human); assay: BLI (Octet RED96e), told of the group
T1 construct: also called VEGF antigen; Human/Cynomolgus VEGF/VEGFA/VEGF165 Protein
T1 chain: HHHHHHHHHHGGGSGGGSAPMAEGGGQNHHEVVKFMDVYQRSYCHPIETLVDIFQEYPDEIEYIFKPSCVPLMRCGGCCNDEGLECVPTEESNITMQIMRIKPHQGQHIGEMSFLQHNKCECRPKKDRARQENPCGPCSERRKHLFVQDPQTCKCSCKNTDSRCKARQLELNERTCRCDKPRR

[2] = molecular target: T1, Recombinant human VEGFA (Sino …); assay: BLI (Octet RED96e), antibody captured at 5 µg/mL, VEGFA at 50 and 25 nM

B1: DotAb4 (Fc fusion)
chain: EVQLVESGGGLVQPGGSLRLSCAISGFSLAATDIDWVRQAPGKGLEWVARIFSPSDFTDYADSVKGRFTISADTSKNTVYLQMNSLRAEDTAVYYCGRPDTYAYNIFLDTPTYNALHYRGQGTLVTVSSGGGGS[human IgG4 Fc with S228P (EU numbers) not given here]
notes: also called Antibody DotAb4; anti-VEGFA nanobody DotAb4
For B1, the Kd [1] was < 0.5 nM, the Kd [2] was < 0.0266 nM and the koff [2] was < 1e-05 s⁻¹. The kon [2] was 375000 M⁻¹ s⁻¹.
